# Reference: PubChem BioAssay AID504332 (National Center for Advancing Translational Sciences (NCATS), 2011)
# In all, about 350,000 compounds went through this assay and about 31,000 (8.9%) were called active. Inconclusive means that the source gave no clear call. Such entries were picked first, then a sample of the others. The call rests on the fitted dose curve; in most records, active means well fitted inhibition curve with a large enough effect; inconclusive means small, poorly fitted or top-dose-only effect; inactive means no such curve, though single readings can be large or run the other way. Where the call is inconclusive, the potency comes from a doubtful curve fit.
# Target: Histone-lysine N-methyltransferase EHMT2 (Homo sapiens) (UniProt Q96KQ7)
# Sequence of UniProt Q96KQ7 (Q96KQ7 whole entry, looked up): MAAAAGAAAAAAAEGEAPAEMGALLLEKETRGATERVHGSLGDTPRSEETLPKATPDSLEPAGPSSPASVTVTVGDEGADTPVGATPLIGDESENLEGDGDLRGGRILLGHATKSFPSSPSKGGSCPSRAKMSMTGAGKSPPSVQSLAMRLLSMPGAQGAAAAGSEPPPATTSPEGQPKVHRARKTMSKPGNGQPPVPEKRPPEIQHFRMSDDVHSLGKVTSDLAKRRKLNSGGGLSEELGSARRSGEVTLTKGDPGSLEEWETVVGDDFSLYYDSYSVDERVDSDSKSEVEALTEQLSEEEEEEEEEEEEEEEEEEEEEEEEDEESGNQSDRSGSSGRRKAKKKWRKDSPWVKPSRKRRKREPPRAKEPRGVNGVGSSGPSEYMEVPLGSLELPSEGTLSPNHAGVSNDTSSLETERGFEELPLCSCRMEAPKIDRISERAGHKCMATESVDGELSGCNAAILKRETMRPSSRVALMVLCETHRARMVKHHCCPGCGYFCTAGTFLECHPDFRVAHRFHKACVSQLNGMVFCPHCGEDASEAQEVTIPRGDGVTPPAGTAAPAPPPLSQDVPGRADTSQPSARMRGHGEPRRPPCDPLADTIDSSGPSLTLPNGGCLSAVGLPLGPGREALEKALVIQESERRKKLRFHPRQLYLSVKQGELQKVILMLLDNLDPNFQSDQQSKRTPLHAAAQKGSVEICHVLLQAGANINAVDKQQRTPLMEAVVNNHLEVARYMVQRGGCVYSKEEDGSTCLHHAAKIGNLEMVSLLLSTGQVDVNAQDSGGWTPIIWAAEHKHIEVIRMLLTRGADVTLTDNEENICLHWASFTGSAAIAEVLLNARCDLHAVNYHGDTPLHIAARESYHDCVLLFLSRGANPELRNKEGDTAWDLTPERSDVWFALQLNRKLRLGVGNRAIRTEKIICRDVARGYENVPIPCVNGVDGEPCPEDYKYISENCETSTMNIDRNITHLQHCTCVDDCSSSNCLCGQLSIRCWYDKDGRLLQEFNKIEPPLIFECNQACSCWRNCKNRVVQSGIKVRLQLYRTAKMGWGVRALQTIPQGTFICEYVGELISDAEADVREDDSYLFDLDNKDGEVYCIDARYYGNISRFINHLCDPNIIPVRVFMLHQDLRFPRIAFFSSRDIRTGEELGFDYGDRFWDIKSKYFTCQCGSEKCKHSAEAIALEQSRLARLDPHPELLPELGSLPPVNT
# Experiment: qHTS Assay for Inhibitors of Histone Lysine Methyltransferase G9a; further: nearly all actives have a fitted effect of over 75% in size
# Settings: G9a H3K9 monomethylation, AlphaScreen, 2 h; activity, negative = inhibition: at 59 µM (top of the series) unless noted
# Outline: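 G9a (20 nM) was preincubated 15 min with compound, then reacted 2 h at room temperature with 500 nM biotin-H3K9 peptide and 20 µM SAM. Monomethyl-H3K9 detected by AlphaScreen using anti-H3K9me1 antibody.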
# On the % scale 0 is the no-effect control and ±100 the full control effect; potency means the concentration at half of the fitted maximal effect; tags describe the fitted curve by direction and shape.
SMILES,Potency,"activity, negative = inhibition"
O=C(CSc1nc2ccccc2n1Cc1ccc(Cl)cc1)N/N=C/c1ccccc1C(=O)O,"inconclusive: 79.4 µM [inhibitor, single point]",–
FC(F)(F)c1cccc(Cc2noc(CN3CCCC(OCc4ccccn4)C3)n2)c1 (stereo not drawn),"inconclusive: 0.224 µM [inhibitor, partial curve, poor fit]",–
CC[C@@H](C)[C@H](NC(=O)OC(C)(C)C)c1nnc(S(=O)(=O)Cc2cc(C)ccc2C)o1,active: 79.4 µM,–
CCCCOC(=O)c1ccc(NC(=O)Cn2nnc3sc4c(c3c2=O)CCCC4)cc1,–,inactive: -4.41%
CCc1cc(C(=O)Nc2cc(Cl)ccc2N2CCN(C)CC2)sc1C,"inconclusive: 7.08 µM [inhibitor, full curve]",–
Cc1csc(NC(=O)CSc2ncnc3ccccc23)n1,–,inactive: 91.2% [at 102 µM]
COC(=O)c1sccc1NC(=O)Nc1ccccc1F,"inconclusive: 0.158 µM [inhibitor, partial curve, poor fit]",–
Cc1nc2ccccn2c1/C(O)=C1\C(=O)C(=O)N(CCN2CCOCC2)C1c1cccs1 (stereo not drawn),–,inconclusive: -82.4% [inhibitor]
O=C(O)CCCCCn1c(SCc2cc(=O)n3cc(Cl)ccc3n2)nc2ccsc2c1=O,"inconclusive: 89.1 µM [inhibitor, partial curve, poor fit]",–
Cc1ccc2cc(C3CC(c4ccco4)=NN3C(=O)CCC(=O)O)c(Cl)nc2c1 (stereo not drawn),"inconclusive: 39.8 µM [inhibitor, single point]",–
CCCn1c(=O)c(C(=O)OCC)c(O)c2cc(Br)ccc21,"inconclusive: 56.2 µM [inhibitor, partial curve, poor fit]",–
Cc1coc2c1c(C)cc1oc(=O)c(CC(=O)NCC(=O)NCC(=O)O)c(C)c12,–,inactive: -2.09% [at 102 µM]
CC(=O)c1cccc(NC(=O)C2COc3ccccc3O2)c1 (stereo not drawn),–,inactive: 19.1% [at 102 µM]
Cc1nc(NC(=O)c2ccc([N+](=O)[O-])cc2Cl)sc1C(=O)N(C)C,"inconclusive: 5.01 µM [inhibitor, full curve, poor fit]",–
Cc1ccc(C(c2nnnn2CS(=O)(=O)c2ccc(C)cc2)N2CCC(C)CC2)cc1 (stereo not drawn),"inconclusive: 89.1 µM [inhibitor, partial curve, poor fit]",–
COc1ccc(/C=C/C(=O)NC(=S)N2CCCCC2)cc1OC,"inconclusive: 89.1 µM [inhibitor, single point]",–
C=CCn1c(SCC(=O)Nc2c(C)n(C)n(-c3ccccc3)c2=O)nc2ccccc2c1=O,–,inactive: 113% [at 12.7 µM]
O=C(NC1CCCCC1)N(CCO)Cc1cc2cc3c(cc2[nH]c1=O)OCCO3,–,inactive: -22.5%
Cc1ccc(-n2nnnc2SCC(=O)N2CCN(C(=O)c3ccco3)CC2)c(C)c1,–,inactive: 9.83%
CCCNC(=O)C(=O)Nc1ccc(N(C)C)cc1,"inconclusive: 7.94 µM [inhibitor, full curve, poor fit]",–
Cc1cccc(N2CC(C(=O)Nc3nnc(SCC(=O)Nc4cc(C)on4)s3)CC2=O)c1 (stereo not drawn),"inconclusive: 39.8 µM [inhibitor, single point]",–
CCOc1ccc(-c2cc(C(=O)N3CCN(S(=O)(=O)c4cc(Cl)ccc4OC)CC3)[nH]n2)cc1,–,inactive: -28.3%
O=C(CSc1nccc2ccccc12)N1CCN(c2ccccn2)CC1,"inconclusive: 89.1 µM [inhibitor, single point]",–

SMILES,Potency,"activity, negative = inhibition"
COc1cccc(NC2=NCC(=O)N2Cc2cccs2)c1,active: 50.1 µM,–
Cn1nnnc1SCCNC(=O)C1CCC(=O)N(Cc2ccccc2F)C1 (stereo not drawn),–,inactive: -7.57% [at 102 µM]
COc1ccc(CSCCc2n[nH]c(=S)n2-c2ccccc2)cc1,"inconclusive: 7.94 µM [inhibitor, single point]",–
COc1ccc(C(=O)CSc2nnc(-c3cnccn3)n2Cc2ccco2)cc1,"inconclusive: 89.1 µM [inhibitor, single point]",–
COc1ccc(N2C(=O)CC2(/C=C/c2ccccc2OC)C(=O)NC2CCCC2)cc1 (stereo not drawn),"inconclusive: 20 µM [inhibitor, partial curve, poor fit]",–
CCCSc1nnc2c(n1)OC(c1sccc1C)Nc1ccccc1-2 (stereo not drawn),"inconclusive: 0.316 µM [inhibitor, full curve, poor fit]",–
CC(=O)N1CCCC1c1nc2ccccc2n1Cc1ccccc1 (stereo not drawn),"inconclusive: 39.8 µM [inhibitor, partial curve, poor fit]",–
COC(=O)c1cccc(NC(=O)C(C)N2C(=O)c3ccccc3C2=O)c1 (stereo not drawn),–,inconclusive: -69.2% [inhibitor]
CCCc1c(C(=O)N/N=C/c2ccccc2C(F)(F)F)nnn1-c1nonc1N,–,inactive: 23.7% [at 102 µM]
CCN(CC)CCN(Cc1cc2cc(C)ccc2[nH]c1=O)C(=S)NCc1ccco1,–,inactive: -33.3%
COc1ccc2nc(NCCO)[nH]c2c1,"inconclusive: 79.4 µM [inhibitor, single point]",–
C(=N\c1nccs1)/c1c[nH]c2ccccc12,"inconclusive: 31.6 µM [inhibitor, partial curve, poor fit]",–
Cc1ccc(C2CC(=O)Nc3cc4c(cc32)OCCO4)cc1 (stereo not drawn),–,inactive: -34.2%
COc1ccccc1N1CCN(C(=O)c2ccc3[nH]c(C)c(C)c3c2)CC1,active: 39.8 µM,–
Cc1ccc(S(=O)(=O)Cc2ccc(C(=O)N3CCc4ccccc4C3)o2)cc1,active: 50.1 µM,–
Cc1ccc(C(=O)N2NC(c3ccccc3F)C3C(=O)N(c4cccc(C)c4)C(=O)C32)cc1 (stereo not drawn),"inconclusive: 50.1 µM [inhibitor, partial curve, poor fit]",–
COc1ccc(C(=O)c2ccccc2)c2c(O)ccc(C(=O)c3ccccc3)c12,"inconclusive: 39.8 µM [inhibitor, partial curve, poor fit]",–
C=CCn1c(C)cc(C(=O)CSc2ccc(NC(C)=O)cc2)c1C,"inconclusive: 50.1 µM [inhibitor, single point]",–
O=C(COc1cccc2cccnc12)Nc1ccccc1,–,inactive: -4.01% [at 102 µM]
Cc1ccccc1OC(C)C(=O)Nc1ccc(S(=O)(=O)Nc2nccs2)cc1 (stereo not drawn),active: 50.1 µM,–
CCOc1ccc(OCC)c(NC(=O)C(NS(=O)(=O)c2ccc3c(c2)oc(=O)n3C)C(C)C)c1 (stereo not drawn),active: 56.2 µM,–
COc1ccc(C)cc1NC(=O)C(=O)NNC(=O)COc1ccc(Cl)cc1,–,inactive: 8.38% [at 102 µM]
O=[N+]([O-])/C(C(Cl)=C(Cl)Cl)=C(\Sc1ccccc1)N1CCCCC1,active: 39.8 µM,–

SMILES,Potency,"activity, negative = inhibition"
O=C(CCl)Nc1cc2[nH]c(=O)[nH]c2cc1Br,active: 50.1 µM,–
O=C(Cn1ncc2c([nH]c3ccccc32)c1=O)Nc1cccc(C(F)(F)F)c1,–,inactive: -4.2%
Oc1c(C(c2ccc(F)cc2)N2CCOCC2)sc2nc(-c3ccco3)nn12 (stereo not drawn),"inconclusive: 22.4 µM [inhibitor, single point]",–
CC(=O)N1CCc2cc(S(=O)(=O)NC(Cc3ccccc3)C(=O)Nc3cccc(C)c3)ccc21 (stereo not drawn),"inconclusive: 39.8 µM [inhibitor, partial curve, poor fit]",–
O=C(Oc1ccccc1F)c1ccc2c(=O)n3c(nc2c1)CCC3,active: 63.1 µM,–
CN(CCOC(=O)c1cccc(Br)c1)C(C)(C)C,"inconclusive: 70.8 µM [inhibitor, partial curve, poor fit]",–
CC(/C=N/NC(=O)c1ccc(Br)cc1)=C\c1ccccc1,"inconclusive: 3.55 µM [inhibitor, partial curve, poor fit]",–
O=C1C(Nc2ccccc2)=CC(c2ccc(Br)cc2)N1c1ccccc1 (stereo not drawn),"inconclusive: 8.91 µM [inhibitor, partial curve, poor fit]",–
CC(=O)c1ccc(Nc2nc(=O)c3cccnc3s2)cc1,"inconclusive: 22.4 µM [inhibitor, single point]",–
CCc1ccc(C2C(C#N)=C(N)C(C#N)(C#N)C3=CCC(C(C)(C)C)CC32)cc1 (stereo not drawn),"inconclusive: 39.8 µM [inhibitor, single point]",–
COc1ccc2c(c1)nc(SCC(=O)c1ccc(Br)s1)n2C,active: 39.8 µM,–
COc1ccc(NC(=S)N2CCN(C(=O)c3ccco3)CC2)c(OC)c1,"inconclusive: 22.4 µM [inhibitor, single point]",–
O=C(Nc1cccc(C(=O)O)c1)/C(=C/c1ccc2c(c1)OCO2)NC(=O)c1cccc(Br)c1,"inconclusive: 100 µM [inhibitor, single point]",–
Cc1cc(C(=O)C(C)OC(=O)c2ccc(NC(=O)CC#N)cc2)c(C)n1-c1ccc(OC(F)F)cc1 (stereo not drawn),–,inactive: 17.5% [at 12.7 µM]
CCC(=O)NC(=S)Nc1cccc(NC(=O)c2ccccc2C)c1,"inconclusive: 44.7 µM [inhibitor, partial curve, poor fit]",–
CC(C)(C)c1ccc(C(CC(=O)O)NC(=O)Cc2ccc(F)cc2)cc1 (stereo not drawn),"inconclusive: 2 µM [inhibitor, full curve, poor fit]",–
COCCn1nnnc1CN(Cc1cccnc1)Cc1cc2cc(OC)ccc2[nH]c1=O,"inconclusive: 89.1 µM [inhibitor, single point]",–
Cc1ccccc1C1N(c2nccs2)C(=O)C2CCCN21 (stereo not drawn),"inconclusive: 31.6 µM [inhibitor, partial curve]",–
COc1ccccc1NC(=O)CN(C)S(=O)(=O)c1ccc2c(c1)c(=O)n(C)c(=O)n2C,–,inactive: 2.11%
CN(C)CCN(C(=O)c1ccc(S(=O)(=O)N(C)CC2CCCO2)cc1)c1nc2cc3c(cc2s1)OCO3 (stereo not drawn),"inconclusive: 79.4 µM [inhibitor, single point]",–
O=S(=O)(c1cccc(-c2csc(-c3cccnc3)n2)c1)N1CCCCC1,–,inactive: -3.81% [at 2.33 µM]
COc1cccc(-c2nc(NC(C)C)c3ccccc3n2)c1O,–,inconclusive: -53.5% [inhibitor]
